# Measured values published in PubChem BioAssay AID588453 (National Center for Advancing Translational Sciences (NCATS), 2011).
# “And” between values parts separate entries of the source, which are not always exact repeats. Equal values may be shown once. The whole screen tested about 390,000 compounds, of which about 4,000 (1%) were called active. Inconclusive means that the source gave no clear call. Such entries were picked first, then a sample of the others. Calls come from the whole dose curve; as a rule, active = well fitted inhibition curve with a large enough effect; inconclusive = small, poorly fitted or top-dose-only effect; inactive = no such curve, though single readings can be large or run the other way. Potencies beside an inconclusive call are fits to weak or partial responses and may not hold up.
# Target: Thioredoxin reductase 1, cytoplasmic (Rattus norvegicus) (UniProt O89049)
# Sequence of UniProt O89049 (O89049 whole entry, looked up): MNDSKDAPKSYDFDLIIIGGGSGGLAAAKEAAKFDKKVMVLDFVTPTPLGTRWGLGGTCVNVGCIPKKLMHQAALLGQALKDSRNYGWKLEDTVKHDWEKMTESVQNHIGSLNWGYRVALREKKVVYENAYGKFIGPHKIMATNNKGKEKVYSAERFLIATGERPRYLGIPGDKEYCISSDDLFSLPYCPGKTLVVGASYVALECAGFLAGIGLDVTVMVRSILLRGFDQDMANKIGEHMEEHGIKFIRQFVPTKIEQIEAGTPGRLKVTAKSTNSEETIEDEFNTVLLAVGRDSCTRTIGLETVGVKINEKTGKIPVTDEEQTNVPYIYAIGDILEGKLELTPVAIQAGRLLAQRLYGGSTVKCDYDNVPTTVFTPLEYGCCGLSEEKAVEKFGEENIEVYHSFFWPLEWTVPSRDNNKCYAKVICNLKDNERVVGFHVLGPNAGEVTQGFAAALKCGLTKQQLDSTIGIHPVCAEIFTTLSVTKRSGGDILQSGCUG
# Test: qHTS Assay for Inhibitors of Mammalian Selenoprotein Thioredoxin Reductase 1 (TrxR1): qHTS; note: nearly all actives have a fitted effect of over 65% in size
# Settings: recombinant rTrxR1, NADPH fluorescence consumption, selenite substrate; series mostly up to 114 µM; activity change, negative = inhibition: at the top concentration
# Text: The selenoprotein thioredoxin reductase (TrxR; EC 1.8.1.9) is a FAD containing homodimeric pyridine nucleotide-disulfide oxidoreductase with many cellular roles. Together with NADPH and its prime substrate thioredoxin (Trx), the enzyme forms the core of the Trx system. The mammalian Trx system exerts a wide spectrum of functions including redox regulation, antioxidant defense, regulation of transcription factors as well as support of cell growth and replication. Many of these functions involve the reduction of Trx, which may subsequently reduce a number of different substrates including ribonucleotide reductase, peroxiredoxins or NFkB. Mammalian TrxR itself also has a broad substrate specificity, reducing both protein and non-protein substrates, including low molecular weight compounds such as dehydroascorbate, lipoic acid, ubiquinone, and juglone. In addition, several drugs in clinical use for anticancer treatment are indeed known to target TrxR1.
# This BioAssay is a validation of an NADPH fluorescence-based, dual-purpose qHTS rTrxR1 assay designed to find potential inhibitors and substrates of rTrxR1. For this particular BioAssay, actives are potential inhibitors. See related BioAssay for substrate data deposition.
# NIH Molecular Libraries Probe Production Network [MLPCN]
# NIH Chemical Genomics Center [NCGC]
# Assay Provider: Elias Arner, Karolinska Institute
# Assay protocol: 2 uL of reagents (buffer in column 4 as negative control and 90 nM rTrxR1 in columns 1-3 and 5-48) were dispensed into Greiner black solid-bottom 1,536-well assay plates, followed by 1 uL of NADPH (400 uM final concentration) to each well. The plates were centrifuged at 1000 rpm for 15 seconds and subsequently incubated for 5 min at room temperature (~22 deg C) to allow for rTrxR1 reduction. Compounds (23 nL) were then transferred via Kalypsys pin tool equipped with 1536-pin array (10 nL slotted pins, V&P Scientific, San Diego, CA). In addition, a duplicate 2-fold serial dilution of the control compounds auranofin, a known gold-based TrxR1 inhibitor, and juglone (5-hydroxy-1,4-naphthoquinone), a natural TrxR1 substrate, were pin-transferred to columns 2 and 3, respectively. After incubation for 15 min at room temperature (~22 deg C), 1 uL of selenite (400 uM final concentration) were dispensed to each well. The plate was immediately transferred to a ViewLux high-throughput CCD imager (PerkinElmer), wherein kinetic measurements of NADPH fluorescence (Ex 340 nm, Em 450 nm) were acquired (8 minute kinetic read, see Table 1). Read 1 was utilized to assess the capacity of a compound to serve as an rTrxR1 substrate, i.e. a decrease in NADPH fluorescence compared to the no-compound background is an indication of a substrate behavior for that particular compound. For inhibitory activity of a compound, delta values, computed as the difference in fluorescence intensity between the first and last reads of an 8-minute time kinetic window, were used. All reagents were diluted in an assay buffer consisting of 50 mM Tris-HCl, pH 7.5, 2 mM EDTA, and 0.01% Tween-20.
# Throughout the screen, reagent bottle and all liquid lines were made light-tight to minimize reagent degradation. All screening operations were performed on a fully integrated robotic system (Kalypsys, San Diego, CA) containing one RX-130 and two RX-90 anthropomorphic robotic arms (Staubli, Duncan, SC). Library plates were screened starting from the lowest and proceeding to the highest concentration, and a 'double-pinning' step of the highest concentration was required to access higher concentrations of compounds. Vehicle-only plates, with DMSO being pin-transferred to the columns 5-48, were inserted uniformly at the beginning and the end of each library in order to monitor and record any shifts in the background, which can be affected by reagent dispensers or loss in enzyme activity over time. […]
# % is set by controls: 0 for no effect and ±100 for the full control effect; potency is the fitted concentration of half-maximal effect; tags give direction and shape of the fitted curve.
Structure (SMILES),Potency,"activity change, negative = inhibition"
CN1C(=O)C(Cc2ccsc2)C(=O)N(C)C1=O,"inconclusive: 20 µM [inhibitor, partial curve, poor fit]",–
C=CCN1C(=O)/C(=C/c2ccc3c(c2)CCCN3CCC)C(=O)NC1=S,active: 10 µM,–
CCCN1CCc2cc(O)cc3c2C1Cc1ccc(O)c(O)c1-3 (stereo unspecified),"inconclusive: 13.4 µM [inhibitor, partial curve]",–
COc1ccc(/C=C2/C(=O)N(c3ccccc3)N=C2C)cc1,"inconclusive: 63.1 µM [inhibitor, partial curve, poor fit]",–
CNc1ccc2nc3ccccc3[n+](C)c2c1,"inconclusive: 14.1 µM [inhibitor, full curve]",–
O=C1NC(=O)N(c2ccc3c(c2)OCO3)C(=O)/C1=C\c1ccc(N2CCCCC2)o1,"inconclusive: 39.8 µM [inhibitor, partial curve]",–
CC(C)[C@H]1C(=O)N2CCC[C@H]2[C@]2(O)O[C@](NC(=O)[C@@H]3C=C4c5cccc6[nH]cc(c56)C[C@H]4N(C)C3)(C(C)C)C(=O)N12,"inconclusive: 15.8 µM [inhibitor, full curve]",–
N#CC(C#N)=Cc1ccc(O)c(O)c1,active: 39.8 µM and active: 16.8 µM,–
O=C1NC(=O)C(=Cc2ccc(-c3ccc(S(=O)(=O)N4CCOCC4)cc3)o2)C(=O)N1,"inconclusive: 44.7 µM [inhibitor, partial curve]",–
Cc1ccsc1-c1nc(CSCC(=O)N2CCC3(CC2)OCCO3)c(C)o1,"inconclusive: 20 µM [inhibitor, partial curve, poor fit]",–
O=C(COc1ccccc1[N+](=O)[O-])N1CCN(CCc2ccncc2)CC1,"inconclusive: 20 µM [inhibitor, full curve]",–
C=CCSc1nc2c(c(-c3ccsc3)c1C#N)CN(C)CC2,"inconclusive: 25.1 µM [inhibitor, partial curve, poor fit]",–
COc1ccc(N2C(=O)/C(=C/C=C/c3ccccc3[N+](=O)[O-])C(=O)NC2=S)cc1,"inconclusive: 28.2 µM [inhibitor, single point]",–
CN(C)[C@@H]1C(=O)C(C(N)=O)=C(O)[C@@]2(O)C(=O)C3=C(O)c4c(O)cccc4[C@@](C)(O)C3C[C@@H]12 (stereo partly specified),–,inactive: -8.36%
O=C1NC(=O)N(c2ccc3c(c2)OCO3)C(=O)/C1=C\c1ccc(-c2ccccc2C(=O)O)o1,–,inactive: -28.2%
COc1ccc2[nH]c3c(c2c1)CCNC3,"inconclusive: 18.9 µM [inhibitor, single point] and inconclusive: 33.6 µM [inhibitor, single point]",–
CC(=O)c1cn(Cc2ccccc2F)c2ccccc12,–,inactive: 9.6%
Cc1ccc(N2C(=O)NC(=O)/C(=C\c3cc(C)n(-c4ccc(C(=O)O)cc4)c3C)C2=O)cc1,"inconclusive: 56.2 µM [inhibitor, partial curve]",–
N[C@@H](Cc1cc(I)c(O)c(I)c1)C(=O)O,active: 12.6 µM,–
Cc1cccc(N2C(=O)NC(=O)/C(=C\c3ccc(N4CCOCC4)cc3)C2=O)c1,"inconclusive: 44.7 µM [inhibitor, partial curve]",–
Cc1ccsc1/C=C1\C(=O)NC(=S)N(C)C1=O,active: 31.6 µM,–

Structure (SMILES),Potency,"activity change, negative = inhibition"
CC(C)OC(=O)c1c(N)n(CC2CCCO2)c2nc3ccccc3nc12 (stereo unspecified),–,inactive: 132%
Oc1cc2c(cc1CN1CCN(c3ccc(F)cc3)CC1)OCO2,"inconclusive: 22.4 µM [inhibitor, partial curve]",–
Cn1cccc1/C=C1\C(=O)NC(=O)N(Cc2ccccc2)C1=O,"inconclusive: 35.5 µM [inhibitor, full curve, poor fit]",–
Cc1nn(CCc2n[nH]c(=S)n2-c2cccc(Cl)c2)c(C)c1[N+](=O)[O-],"inconclusive: 31.6 µM [inhibitor, partial curve, poor fit]",–
N#CC(C#N)=NNc1ccc(S(=O)(=O)N2CCCC2)cc1,"inconclusive: 22.4 µM [inhibitor, full curve, poor fit]",–
Cc1ccc(/C=C2\C(=O)NC(=O)N(Cc3ccccc3Cl)C2=O)o1,"inconclusive: 12.6 µM [inhibitor, full curve]",–
CN1/C(=C\C=C2C(=O)NC(=O)NC2=O)C(C)(C)c2ccccc21,"inconclusive: 50.1 µM [inhibitor, partial curve, poor fit]",–
C[C@H]1[C@@H](OS(=O)(=O)O)C[C@@H]2C[C@H]([C@@H](O)c3cc(=O)[nH]c(=O)[nH]3)NC3=NC[C@H]1N32,–,inactive: -0.0454%
c1ccc(Cn2ccnc2)cc1,–,inactive: 14%
O=C1/C(=C/c2cccc([N+](=O)[O-])c2)N2CCC1CC2,"inconclusive: 50.1 µM [inhibitor, partial curve]",–
COc1cccc(N2C(=O)NC(=O)/C(=C/c3ccc4c(c3)Cc3ccccc3-4)C2=O)c1,active: 14.1 µM,–
c1ccc2ccccc2c1,–,inactive: 36.7%
Cc1[nH]n(-c2ccccc2)c(=O)c1C(C[N+](=O)[O-])c1ccccc1Cl (stereo unspecified),"inconclusive: 25.1 µM [inhibitor, partial curve, poor fit]",–
COc1ccc(CN2C(=O)NC(=O)/C(=C\c3cc(OC)c(OC)c(OC)c3)C2=O)cc1,"inconclusive: 35.5 µM [inhibitor, single point]",–
O=C(N/N=C/c1c(O)n(C2CC2)c(=S)[nH]c1=O)c1ccccc1Cl,"inconclusive: 50.1 µM [inhibitor, partial curve]",–
Cc1ccc(N2C(=O)NC(=O)/C(=C\C=C\c3ccco3)C2=O)cc1,"inconclusive: 50.1 µM [inhibitor, partial curve]",–
O=C1CC(=O)N(c2cccc(C(F)(F)F)c2)C(=O)N1,"inconclusive: 56.2 µM [inhibitor, single point]",–
CCOc1cc(C)cc2oc(=O)c3c(c12)CCCC3,–,inactive: -11.6%
Oc1c(Br)c(Br)c(Br)c(Br)c1Br,"inconclusive: 31.6 µM [inhibitor, full curve]",–
O=C1NC(=S)N(c2ccc(F)cc2)C(=O)/C1=C\c1ccoc1,"inconclusive: 22.4 µM [inhibitor, single point]",–
